According to the supplement of paper PMC10126150:
Values marked as one replicate rest on one cluster of the flow cell; about a third of the high ones do not repeat.

System: ATP
Assay: switch fluorescence ratio, 500 uM ATP over buffer (Cy3 cluster intensity, sum of 5 cycles each) (fold (ratio)); higher = stronger signal-on switching upon ATP binding; sequences stand for … in TCGTCGGCAGCGTCAGATGTGTATAAGAGACAGTTTTTTTTTTTTTTTTTTTTTTTTT…TC
Details: aptamer strand: ATP DNA aptamer (quencher-CACCTGGGGGAGTATTGCGGAGGAAGG + anchor), 100 nM annealed; ATP concentration: 500 uM; one replicate
How it was run: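 Between each of five buffer/ATP cycles, the flow-cell was stripped with NaOH and re-annealed. Each cycle imaged Cy3-labelled switching-strand clusters, annealed to 100 nM quencher-labelled ATP aptamer on a modified Illumina MiSeq flow-cell, first in selection buffer and then after 15 min with 500 uM ATP at 22 °C. The fluorescence ratio is summed target-cycle over summed buffer-cycle Cy3 intensity per cluster, averaged per switch-domain sequence, with clusters outside 100-1000 RFU excluded.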
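Further: ATP exposure 15 min at 22 °C before imaging.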

Sequence | switch fluorescence ratio
ACTAGGTGGT | 1.08
ATCGAGTCGC | 1
GGGGTAGAT | 1
AGGATATCGA | 1
AAAGCGGCT | 1
CGGGAAACTG | 1.02
CTGAAGGATA | 1.03
AGCAATAGGA | 2.85
ACCTGCTGGA | 1.01
ATGCTACAGT | 1.02
CGTAGCCCCC | 1.87
CGATTGTTTG | 0.973
ATAGTTACGG | 1.06
TAGATATAAT | 0.997
CCTATATA | 0.987
CACAATCTG | 0.999
GTGTTCAACT | 0.99
CCGATTATTA | 1.03
GGACTACGTG | 1.13
GAGCAACTGT | 1.01
GAAAAAACGG | 1.04
AGAAGCTATC | 1.26
GAGGCCCGAC | 0.937
TACATACGGC | 1.72
GTTCGCTGG | 1.14
ACTCGACTT | 1.12

Sequence | switch fluorescence ratio
CTGGGTGTCA | 1.03
TCGTATCGCT | 0.99
CTTGCCTGGT | 1
GCGGTGCCTC | 0.988
TAAATTCGTA | 1.02
CAGAATCTAC | 1.03
AGTCGGCTGG | 0.953
CATATACTTA | 1.07
GCGTCAAACT | 1.03
GGATGGTTAT | 0.966
TTGGTCTGTG | 0.986
ATTCAATACG | 1.19
TGGTTTACGA | 1
TAGGCTTTAT | 0.97
GGGCCACTGC | 0.924
TTTTCCCGGC | 1.02
GCTGCTGTCT | 1.02
TGGTATAG | 1
GATACAGGCA | 1.01
AGTGGTTTTG | 0.965
AAACGATTAC | 1.22
CGTTGCGATC | 1.4
GGGTGGAGAT | 1
ACGATGGTGC | 1.21
GAATTCGGTG | 0.959
ATGTATTATC | 0.997

Sequence | switch fluorescence ratio
CCGTATGGTT | 1.02
TAAACTTAAC | 1.1
GACATATGG | 0.992
GCAAAACTTT | 1.02
GAGGTAGAAA | 1.02
GACGTGGTAT | 1.13
ATCAAGATGT | 0.976
ACGTGTTAGG | 1.05
CAGTGCTTT | 0.962
GACTCTCCCA | 0.993
TAAGGGGCC | 1
TGACGTATAA | 1.2
AAAGAGGTTA | 0.999
GATAAATTAA | 0.999
TTATAACTGC | 0.978
TCGATCGCCG | 0.946
CTGGTGAGT | 0.996
TTTAATGCTC | 1.04
CTCTACGGGT | 0.981
ATCTATAAC | 1.02
TAACCCAGGA | 1.29
GGTCCCTTTA | 1.01
CTAGCATGTG | 0.999
TCCTGGGTAG | 1.02
GTGCCTAAGC | 0.987
ACAACGACCG | 1.1

Sequence | switch fluorescence ratio
GGGTCCTTC | 1.03
CGTGATATGG | 1.02
AAGTGATCC | 1.1
GAGTAGTAGG | 0.954
GTTTTGCCGC | 0.991
TCCCCGGCCT | 1.1
AACGGGAGGC | 1.05
AGATCACCAT | 1.08
ATGTTGCGTC | 1.11
AATGCGTATA | 1.02
TTATGCAACT | 1.18
AGGGGTGTAC | 1
GTCGACTATA | 0.976
GTTGGTCGCG | 0.991
GTATTGGACT | 0.948
GAACATTCTA | 0.973
GTGTTTGGAG | 0.988
ACCTTTATTG | 1.02
TCGGAATGGA | 0.986
TTAGGAACC | 0.993
TGGGCAATA | 1.7
TATCTGTCAT | 1.03
GAGATCTAAG | 0.966
ATTAAAAAGG | 1.03
ACGGGCTCC | 1.04
AAAGTACCAG | 1.13

Sequence | switch fluorescence ratio
ATAATAGGCT | 1.04
GTATCAGTAA | 0.981
TTGGAACATT | 0.984
AGGCTTGTTC | 0.955
TAGCGATTTG | 1.02
ACGTTCTTTT | 0.972
CTGTAATTAG | 0.977
GATGCTGAGG | 1.02
CAAAGTTCGG | 0.929
CAAGGGGCTA | 1.19
CAGGCAGTGG | 1.01
CGCATTACGT | 6.68
CCATACGGGT | 1.02
AGTCATGCTT | 1.08
GGCCGATTTC | 1.01
ACTTACGACA | 1.29
CCGAAGTACT | 1.44
GACTCATTTA | 1.03
TTTACCTCAC | 1.5
ATTACTGGGA | 1.01
CCTTTCCTTC | 1.33
GCGGTTAGAT | 1.36
GCACTGGGTC | 0.995
CCCATGGGAT | 0.998
CCTTCGAGCA | 3.22
CAGTACGCC | 1.02

Sequence | switch fluorescence ratio
GCTCTTGCCG | 1.05
GGTGCAGGGC | 0.816
TACGACTGCC | 1.15
AAACTGCGTG | 0.949
CACAGCGATT | 1.24
TACGGAATGC | 1.57
AGCATGCTTG | 0.979
GATTTAACAT | 0.997
TAGTGTGTCT | 1.02
GTAACCAGAT | 1.04
TATTTTATG | 1.04
CAGCAATTTT | 1.54
ATGAGAATAC | 1.11
ACCGTGGCG | 1.05
CTAGTTCTTG | 1.02
AAGCCAGTCC | 1.07
GTTAGTGGAC | 1.01
CTGCGGAGGG | 0.969
AATTTCTATG | 0.996
TATTTTGGCT | 0.97
CGGATATGTT | 1
CGCCTGAGAG | 1.02
TAGGCAGTTA | 0.966
GCAGTGTACA | 1.05
